From a compilation of properties of binary mixtures (doi:10.1016/j.molliq.2022.118933)
The densities may have been worked out from excess volumes.

Assay: xn = mol fraction of the nth substance listed
Details: 100 kPa

CCCC[N+](C)(C)C[c-]1cccc1.O=S(=O)([N-]S(=O)(=O)C(F)(F)F)C(F)(F)F.[Fe+2].c1cc[cH-]c1 + CC#N
mass density (293 K, x1 = 0.01): 839.1 kg/m3
mass density (293 K, x1 = 0.02): 887.6 kg/m3
mass density (293 K, x1 = 0.03): 930.8 kg/m3
mass density (293 K, x1 = 0.07): 1062.1 kg/m3
mass density (293 K, x1 = 0.08): 1087 kg/m3
mass density (293 K, x1 = 0.1): 1128.7 kg/m3
mass density (293 K, x1 = 0.12): 1165.7 kg/m3
mass density (293 K, x1 = 0.15): 1209.6 kg/m3
mass density (293 K, x1 = 0.2): 1259.7 kg/m3
mass density (298 K, x1 = 0.01): 833.7 kg/m3
mass density (298 K, x1 = 0.02): 882.2 kg/m3
mass density (298 K, x1 = 0.05): 996.7 kg/m3
mass density (298 K, x1 = 0.06): 1030.9 kg/m3
mass density (298 K, x1 = 0.07): 1056.8 kg/m3
mass density (298 K, x1 = 0.08): 1081.8 kg/m3
mass density (298 K, x1 = 0.1): 1123.5 kg/m3
mass density (298 K, x1 = 0.12): 1160.6 kg/m3
mass density (298 K, x1 = 0.15): 1204.5 kg/m3
mass density (298 K, x1 = 0.2): 1254.8 kg/m3
mass density (303 K, x1 = 0.01): 828.3 kg/m3
mass density (303 K, x1 = 0.02): 876.8 kg/m3
mass density (303 K, x1 = 0.03): 920 kg/m3
mass density (303 K, x1 = 0.05): 991.3 kg/m3
mass density (303 K, x1 = 0.06): 1025.5 kg/m3
mass density (303 K, x1 = 0.07): 1051.4 kg/m3
mass density (303 K, x1 = 0.08): 1076.4 kg/m3
mass density (303 K, x1 = 0.12): 1155.4 kg/m3
mass density (303 K, x1 = 0.15): 1199.4 kg/m3
mass density (303 K, x1 = 0.2): 1248.9 kg/m3
mass density (308 K, x1 = 0.01): 822.8 kg/m3
mass density (308 K, x1 = 0.02): 871.4 kg/m3
mass density (308 K, x1 = 0.03): 914.6 kg/m3
mass density (308 K, x1 = 0.05): 986 kg/m3
mass density (308 K, x1 = 0.06): 1020.2 kg/m3
mass density (308 K, x1 = 0.07): 1046.2 kg/m3
mass density (308 K, x1 = 0.1): 1113.2 kg/m3
mass density (308 K, x1 = 0.12): 1150.3 kg/m3
mass density (308 K, x1 = 0.15): 1194.4 kg/m3
mass density (313 K, x1 = 0.01): 817.4 kg/m3
mass density (313 K, x1 = 0.02): 866 kg/m3
mass density (313 K, x1 = 0.03): 909.2 kg/m3
mass density (313 K, x1 = 0.05): 980.6 kg/m3
mass density (313 K, x1 = 0.06): 1015 kg/m3
mass density (313 K, x1 = 0.08): 1066.1 kg/m3
mass density (313 K, x1 = 0.1): 1108 kg/m3
mass density (313 K, x1 = 0.12): 1145.3 kg/m3
mass density (313 K, x1 = 0.15): 1189.4 kg/m3
mass density (313 K, x1 = 0.2): 1240.1 kg/m3
mass density (318 K, x1 = 0.02): 860.4 kg/m3
mass density (318 K, x1 = 0.03): 903.7 kg/m3
mass density (318 K, x1 = 0.05): 975.1 kg/m3
mass density (318 K, x1 = 0.07): 1035.5 kg/m3
mass density (318 K, x1 = 0.1): 1102.7 kg/m3
mass density (318 K, x1 = 0.12): 1140 kg/m3
mass density (323 K, x1 = 0.02): 854.6 kg/m3
mass density (323 K, x1 = 0.03): 897.9 kg/m3
mass density (323 K, x1 = 0.05): 969.4 kg/m3
mass density (323 K, x1 = 0.06): 1003.8 kg/m3
mass density (323 K, x1 = 0.07): 1029.9 kg/m3
mass density (323 K, x1 = 0.08): 1055.1 kg/m3
mass density (323 K, x1 = 0.1): 1097.2 kg/m3
mass density (323 K, x1 = 0.12): 1134.6 kg/m3
mass density (323 K, x1 = 0.15): 1178.9 kg/m3
mass density (328 K, x1 = 0.01): 800.5 kg/m3
mass density (328 K, x1 = 0.02): 849.1 kg/m3
mass density (328 K, x1 = 0.03): 892.4 kg/m3
mass density (328 K, x1 = 0.06): 998.5 kg/m3
mass density (328 K, x1 = 0.07): 1024.6 kg/m3
mass density (328 K, x1 = 0.08): 1049.8 kg/m3
mass density (328 K, x1 = 0.1): 1092 kg/m3
mass density (328 K, x1 = 0.15): 1173.9 kg/m3
mass density (328 K, x1 = 0.2): 1224.8 kg/m3
mass density (333 K, x1 = 0.05): 958.6 kg/m3
mass density (333 K, x1 = 0.06): 993.2 kg/m3
mass density (333 K, x1 = 0.08): 1044.6 kg/m3
mass density (333 K, x1 = 0.1): 1086.9 kg/m3
mass density (333 K, x1 = 0.12): 1124.5 kg/m3
mass density (333 K, x1 = 0.15): 1168.9 kg/m3
mass density (333 K, x1 = 0.2): 1220 kg/m3
mass density (338 K, x1 = 0.01): 789.6 kg/m3
mass density (338 K, x1 = 0.02): 838.3 kg/m3
mass density (338 K, x1 = 0.03): 881.6 kg/m3
mass density (338 K, x1 = 0.06): 988 kg/m3
mass density (338 K, x1 = 0.08): 1039.6 kg/m3
mass density (338 K, x1 = 0.1): 1082 kg/m3
mass density (338 K, x1 = 0.12): 1119.6 kg/m3
mass density (338 K, x1 = 0.15): 1164.2 kg/m3
mass density (338 K, x1 = 0.2): 1215.4 kg/m3
mass density (343 K, x1 = 0.01): 783.6 kg/m3
mass density (343 K, x1 = 0.02): 832.3 kg/m3
mass density (343 K, x1 = 0.03): 875.7 kg/m3
mass density (343 K, x1 = 0.05): 947.6 kg/m3
mass density (343 K, x1 = 0.06): 982.3 kg/m3
mass density (343 K, x1 = 0.1): 1076.4 kg/m3
mass density (343 K, x1 = 0.12): 1114.2 kg/m3
mass density (343 K, x1 = 0.2): 1210.1 kg/m3
mass density (348 K, x1 = 0.01): 777.8 kg/m3
mass density (348 K, x1 = 0.03): 869.9 kg/m3
mass density (348 K, x1 = 0.05): 941.9 kg/m3
mass density (348 K, x1 = 0.06): 976.6 kg/m3
mass density (348 K, x1 = 0.1): 1070.9 kg/m3
mass density (348 K, x1 = 0.15): 1153.5 kg/m3
mass density (348 K, x1 = 0.2): 1204.9 kg/m3
